# The supplement of paper PMC8728848
# Some of the results follow.
# B1: SEX4 (Arabidopsis thaliana), Q944A8 (protein)
# chain: TQAMGAVLTYRHELGMNYNFIRPDLIVGSCLQTPEDVDKLRKIGVKTIFCLQQDPDLEYFGVDISSIQAYAKKYSDIQHIRCEIRDFDAFDLRMRLPAVVGTLYKAVKRNGGVTYVHCTAGMGRAPAVALTYMFWVQGYKLMEAHKLLMSKRSCFPKLDAIRNATIDILTGLKRKTVTLTLKDKGFSRVEISGLDIGWGQRIPLTLGKGTGFWILKRELPEGQFEYKYIIDGEWTHNEAEPFIGPNKDGHTNNYAKVVDDPTSVDGTTRERLSSEDPELLEEERSKLIQFLETCSEAEV
# Columns and labels:
# Assay in all cases: glycan array binding signal (z-score within array); higher = stronger binding
# Conditions in all cases: glycan notation: IUPAC condensed, linker removed
# [1] = biological target: GlcNAc(b1-6)Gal(b1-4)GlcNAc
# Outline: (§1)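 The binding signal is a Z-score computed within each array. Data were drawn from 3228 arrays in the Consortium for Functional Glycomics database, restricted to those with a known protein sequence. Scores were averaged over arrays of the same protein sequence at different concentrations or buffers, and over linkers, and negative values can be taken as non-binding.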
# GlcNAc(b1-6)GalNAc = biological target: GlcNAc(b1-6)GalNAc
# Outline: as §1
# GlcNAc3Prop(b1-4)GlcNAc = biological target: GlcNAc3Prop(b1-4)GlcNAc
# Outline: as §1
# [2] = biological target: GlcNAc6S(b1-3)Gal(b1-4)GlcNAc
# Outline: as §1
# Kdn(a2-3)Gal(b1-3)GalNAc = biological target: Kdn(a2-3)Gal(b1-3)GalNAc
# Outline: as §1
# Kdn(a2-3)Gal(b1-3)GlcNAc = biological target: Kdn(a2-3)Gal(b1-3)GlcNAc
# Outline: as §1
# Kdn(a2-3)Gal(b1-4)Glc = biological target: Kdn(a2-3)Gal(b1-4)Glc
# Outline: as §1
# Kdn(a2-3)Gal(b1-4)GlcNAc = biological target: Kdn(a2-3)Gal(b1-4)GlcNAc
# Outline: as §1
# [3] = biological target: Kdn(a2-3)Gal(b1-4)[Fuc(a1-3)]GlcNAc
# Outline: as §1
# Kdn(a2-6)Gal(b1-4)GlcNAc = biological target: Kdn(a2-6)Gal(b1-4)GlcNAc
# Outline: as §1
# [4] = biological target: Man(a1-2)Man(a1-2)Man(a1-3)Man
# Outline: as §1
# [5] = biological target: Man(a1-2)Man(a1-2)Man(a1-6)[Man(a1-3)]Man
# Outline: as §1
# Man(a1-2)Man(a1-3)Man = biological target: Man(a1-2)Man(a1-3)Man
# Outline: as §1
# [6] = biological target: Man(a1-2)Man(a1-3)[Man(a1-2)Man(a1-6)]Man
# Outline: as §1
# [7] = biological target: Man(a1-2)Man(a1-3)[Man(a1-2)Man(a1-6)]Man(a1-6)[Man(a1-2)Man(a1-2)Man(a1-3)]Man
# Outline: as §1
# [8] = biological target: Man(a1-2)Man(a1-3)[Man(a1-2)Man(a1-6)]Man(a1-6)[Man(a1-2)Man(a1-2)Man(a1-3)]Man(b1-4)GlcNAc(b1-4)GlcNAc
# Outline: as §1
# [9] = biological target: Man(a1-2)Man(a1-3)[Man(a1-6)]Man(a1-6)[Man(a1-2)Man(a1-3)]Man(b1-4)GlcNAc(b1-4)GlcNAc
# Outline: as §1
# [10] = biological target: Man(a1-2)Man(a1-6)[Man(a1-3)]Man(a1-6)[Man(a1-2)Man(a1-2)Man(a1-3)]Man
# Outline: as §1
# [11] = biological target: Man(a1-2)Man(a1-6)[Man(a1-3)]Man(a1-6)[Man(a1-2)Man(a1-2)Man(a1-3)]Man(b1-4)GlcNAc(b1-4)GlcNAc
# Outline: as §1
# Man(a1-3)[Man(a1-6)]Man = biological target: Man(a1-3)[Man(a1-6)]Man
# Outline: as §1
# [12] = biological target: Man(a1-3)[Man(a1-6)]Man(a1-6)[Man(a1-2)Man(a1-3)]Man(b1-4)GlcNAc(b1-4)GlcNAc
# Outline: as §1
# [13] = biological target: Man(a1-3)[Man(a1-6)]Man(a1-6)[Man(a1-3)]Man
# Outline: as §1
# [14] = biological target: Man(a1-3)[Man(a1-6)]Man(a1-6)[Man(a1-3)]Man(b1-4)GlcNAc(b1-4)GlcNAc
# Outline: as §1
# [15] = biological target: Man(a1-3)[Man(a1-6)]Man(b1-4)GlcNAc(b1-4)GlcNAc
# Outline: as §1
# Man(a1-6)Man = biological target: Man(a1-6)Man
# Outline: as §1
# Man(b1-4)GlcNAc = biological target: Man(b1-4)GlcNAc
# Outline: as §1
# Neu5Ac(a2-3)Gal = biological target: Neu5Ac(a2-3)Gal
# Outline: as §1
# [16] = biological target: Neu5Ac(a2-3)Gal(b1-3)GalNAc
# Outline: as §1
# [17] = biological target: Neu5Ac(a2-3)Gal(b1-3)GalNAc(b1-3)Gal(a1-4)Gal(b1-4)Glc
# Outline: as §1
# [18] = biological target: Neu5Ac(a2-3)Gal(b1-3)GalNAc(b1-4)[Neu5Ac(a2-3)]Gal(b1-4)Glc
# Outline: as §1
# [19] = biological target: Neu5Ac(a2-3)Gal(b1-3)GalNAc(b1-4)[Neu5Ac(a2-8)Neu5Ac(a2-3)]Gal(b1-4)Glc
# Outline: as §1
# [20] = biological target: Neu5Ac(a2-3)Gal(b1-3)GalNAc6S
# Outline: as §1
# [21] = biological target: Neu5Ac(a2-3)Gal(b1-3)GlcNAc
# Outline: as §1
# [22] = biological target: Neu5Ac(a2-3)Gal(b1-3)GlcNAc(b1-2)Man(a1-3)[Neu5Ac(a2-3)Gal(b1-3)GlcNAc(b1-2)Man(a1-6)]Man(b1-4)GlcNAc(b1-4)GlcNAc
# Outline: as §1
# [23] = biological target: Neu5Ac(a2-3)Gal(b1-3)GlcNAc(b1-3)Gal(b1-3)GlcNAc
# Outline: as §1
# [24] = biological target: Neu5Ac(a2-3)Gal(b1-3)GlcNAc(b1-3)Gal(b1-4)GlcNAc
# Outline: as §1
# [25] = biological target: Neu5Ac(a2-3)Gal(b1-3)GlcNAc(b1-3)GalNAc
# Outline: as §1
# [26] = biological target: Neu5Ac(a2-3)Gal(b1-3)GlcNAc6S
# Outline: as §1
# [27] = biological target: Neu5Ac(a2-3)Gal(b1-3)[Fuc(a1-4)]GlcNAc
# Outline: as §1
# [28] = biological target: Neu5Ac(a2-3)Gal(b1-3)[Fuc(a1-4)]GlcNAc(b1-3)Gal(b1-3)[Fuc(a1-4)]GlcNAc
# Outline: as §1
# [29] = biological target: Neu5Ac(a2-3)Gal(b1-3)[Fuc(a1-4)]GlcNAc(b1-3)Gal(b1-4)[Fuc(a1-3)]GlcNAc
# Outline: as §1
# [30] = biological target: Neu5Ac(a2-3)Gal(b1-3)[Neu5Ac(a2-3)Gal(b1-4)]GlcNAc
# Outline: as §1
# [31] = biological target: Neu5Ac(a2-3)Gal(b1-3)[Neu5Ac(a2-6)]GalNAc
# Outline: as §1
# Neu5Ac(a2-3)Gal(b1-4)Glc = biological target: Neu5Ac(a2-3)Gal(b1-4)Glc
# Outline: as §1
# [32] = biological target: Neu5Ac(a2-3)Gal(b1-4)GlcNAc
# Outline: as §1
# [33] = biological target: Neu5Ac(a2-3)Gal(b1-4)GlcNAc(b1-2)Man(a1-3)[GlcNAc(b1-2)Man(b1-4)GlcNAc(b1-2)Man(a1-6)]Man(b1-4)GlcNAc(b1-4)GlcNAc
# Outline: as §1
# [34] = biological target: Neu5Ac(a2-3)Gal(b1-4)GlcNAc(b1-2)Man(a1-3)[Neu5Ac(a2-6)Gal(b1-4)GlcNAc(b1-2)Man(a1-6)]Man(b1-4)GlcNAc(b1-4)GlcNAc
# Outline: as §1
# [35] = biological target: Neu5Ac(a2-3)Gal(b1-4)GlcNAc(b1-3)Gal
# Outline: as §1
# [36] = biological target: Neu5Ac(a2-3)Gal(b1-4)GlcNAc(b1-3)Gal(b1-3)GlcNAc
# Outline: as §1
# [37] = biological target: Neu5Ac(a2-3)Gal(b1-4)GlcNAc(b1-3)Gal(b1-4)GlcNAc
# Outline: as §1
# [38] = biological target: Neu5Ac(a2-3)Gal(b1-4)GlcNAc(b1-3)Gal(b1-4)GlcNAc(b1-3)Gal(b1-4)GlcNAc
# Outline: as §1
# [39] = biological target: Neu5Ac(a2-3)Gal(b1-4)GlcNAc(b1-3)Gal(b1-4)[Fuc(a1-3)]GlcNAc
# Outline: as §1
# [40] = biological target: Neu5Ac(a2-3)Gal(b1-4)GlcNAc(b1-3)GalNAc
# Outline: as §1
# [41] = biological target: Neu5Ac(a2-3)Gal(b1-4)GlcNAc(b1-6)[Gal(b1-3)]GalNAc
# Outline: as §1
# [42] = biological target: Neu5Ac(a2-3)Gal(b1-4)GlcNAc(b1-6)[Neu5Ac(a2-3)Gal(b1-3)]GalNAc
# Outline: as §1
# [43] = biological target: Neu5Ac(a2-3)Gal(b1-4)GlcNAc6S
# Outline: as §1
# [44] = biological target: Neu5Ac(a2-3)Gal(b1-4)[Fuc(a1-3)]GlcNAc
# Outline: as §1
# [45] = biological target: Neu5Ac(a2-3)Gal(b1-4)[Fuc(a1-3)]GlcNAc(b1-3)Gal
# Outline: as §1
binder,measurement,setting,value
B1,glycan array binding signal (z-score),[1],-0.512
same,glycan array binding signal (z-score),GlcNAc(b1-6)GalNAc,-0.365
same,glycan array binding signal (z-score),GlcNAc3Prop(b1-4)GlcNAc,-0.353
same,glycan array binding signal (z-score),[2],0.949
same,glycan array binding signal (z-score),Kdn(a2-3)Gal(b1-3)GalNAc,0.126
same,glycan array binding signal (z-score),Kdn(a2-3)Gal(b1-3)GlcNAc,-0.15
same,glycan array binding signal (z-score),Kdn(a2-3)Gal(b1-4)Glc,-0.402
same,glycan array binding signal (z-score),Kdn(a2-3)Gal(b1-4)GlcNAc,0.514
same,glycan array binding signal (z-score),[3],-0.395
same,glycan array binding signal (z-score),Kdn(a2-6)Gal(b1-4)GlcNAc,-0.36
same,glycan array binding signal (z-score),[4],-0.265
same,glycan array binding signal (z-score),[5],0.008
same,glycan array binding signal (z-score),Man(a1-2)Man(a1-3)Man,-0.463
same,glycan array binding signal (z-score),[6],0.147
same,glycan array binding signal (z-score),[7],-0.337
same,glycan array binding signal (z-score),[8],-0.534
same,glycan array binding signal (z-score),[9],0.099
same,glycan array binding signal (z-score),[10],0.144
same,glycan array binding signal (z-score),[11],-0.379
same,glycan array binding signal (z-score),Man(a1-3)[Man(a1-6)]Man,-0.527
same,glycan array binding signal (z-score),[12],0.025
same,glycan array binding signal (z-score),[13],-0.426
same,glycan array binding signal (z-score),[14],0.825
same,glycan array binding signal (z-score),[15],0.176
same,glycan array binding signal (z-score),Man(a1-6)Man,-0.377
same,glycan array binding signal (z-score),Man(b1-4)GlcNAc,-0.294
same,glycan array binding signal (z-score),Neu5Ac(a2-3)Gal,-0.442
same,glycan array binding signal (z-score),[16],-0.334
same,glycan array binding signal (z-score),[17],-0.271
same,glycan array binding signal (z-score),[18],-0.249
same,glycan array binding signal (z-score),[19],0.161
same,glycan array binding signal (z-score),[20],0.306
same,glycan array binding signal (z-score),[21],-0.569
same,glycan array binding signal (z-score),[22],0.628
same,glycan array binding signal (z-score),[23],0.056
same,glycan array binding signal (z-score),[24],-0.336
same,glycan array binding signal (z-score),[25],2.39
same,glycan array binding signal (z-score),[26],-0.48
same,glycan array binding signal (z-score),[27],-0.212
same,glycan array binding signal (z-score),[28],-0.352
same,glycan array binding signal (z-score),[29],0.033
same,glycan array binding signal (z-score),[30],0.518
same,glycan array binding signal (z-score),[31],0.021
same,glycan array binding signal (z-score),Neu5Ac(a2-3)Gal(b1-4)Glc,-0.294
same,glycan array binding signal (z-score),[32],-0.512
same,glycan array binding signal (z-score),[33],0.164
same,glycan array binding signal (z-score),[34],-0.488
same,glycan array binding signal (z-score),[35],-0.415
same,glycan array binding signal (z-score),[36],-0.227
same,glycan array binding signal (z-score),[37],-0.479
same,glycan array binding signal (z-score),[38],0.125
same,glycan array binding signal (z-score),[39],-0.017
same,glycan array binding signal (z-score),[40],0.068
same,glycan array binding signal (z-score),[41],0.139
same,glycan array binding signal (z-score),[42],0.177
same,glycan array binding signal (z-score),[43],-0.329
same,glycan array binding signal (z-score),[44],-0.301
same,glycan array binding signal (z-score),[45],0.672
